Reference: article PMC7948425
No constants are given. Whether binding was seen depends on the method and setting. In cells and extracts the contact can be indirect. Some binding calls cover weakened binding; strength is not graded here. For part of these data: Where a sequence is shown, tags or fusion partners need not be part of it.

The chains behind the UniProt entries cited, without tags or fusion partners.
UniProt Q9UQE7: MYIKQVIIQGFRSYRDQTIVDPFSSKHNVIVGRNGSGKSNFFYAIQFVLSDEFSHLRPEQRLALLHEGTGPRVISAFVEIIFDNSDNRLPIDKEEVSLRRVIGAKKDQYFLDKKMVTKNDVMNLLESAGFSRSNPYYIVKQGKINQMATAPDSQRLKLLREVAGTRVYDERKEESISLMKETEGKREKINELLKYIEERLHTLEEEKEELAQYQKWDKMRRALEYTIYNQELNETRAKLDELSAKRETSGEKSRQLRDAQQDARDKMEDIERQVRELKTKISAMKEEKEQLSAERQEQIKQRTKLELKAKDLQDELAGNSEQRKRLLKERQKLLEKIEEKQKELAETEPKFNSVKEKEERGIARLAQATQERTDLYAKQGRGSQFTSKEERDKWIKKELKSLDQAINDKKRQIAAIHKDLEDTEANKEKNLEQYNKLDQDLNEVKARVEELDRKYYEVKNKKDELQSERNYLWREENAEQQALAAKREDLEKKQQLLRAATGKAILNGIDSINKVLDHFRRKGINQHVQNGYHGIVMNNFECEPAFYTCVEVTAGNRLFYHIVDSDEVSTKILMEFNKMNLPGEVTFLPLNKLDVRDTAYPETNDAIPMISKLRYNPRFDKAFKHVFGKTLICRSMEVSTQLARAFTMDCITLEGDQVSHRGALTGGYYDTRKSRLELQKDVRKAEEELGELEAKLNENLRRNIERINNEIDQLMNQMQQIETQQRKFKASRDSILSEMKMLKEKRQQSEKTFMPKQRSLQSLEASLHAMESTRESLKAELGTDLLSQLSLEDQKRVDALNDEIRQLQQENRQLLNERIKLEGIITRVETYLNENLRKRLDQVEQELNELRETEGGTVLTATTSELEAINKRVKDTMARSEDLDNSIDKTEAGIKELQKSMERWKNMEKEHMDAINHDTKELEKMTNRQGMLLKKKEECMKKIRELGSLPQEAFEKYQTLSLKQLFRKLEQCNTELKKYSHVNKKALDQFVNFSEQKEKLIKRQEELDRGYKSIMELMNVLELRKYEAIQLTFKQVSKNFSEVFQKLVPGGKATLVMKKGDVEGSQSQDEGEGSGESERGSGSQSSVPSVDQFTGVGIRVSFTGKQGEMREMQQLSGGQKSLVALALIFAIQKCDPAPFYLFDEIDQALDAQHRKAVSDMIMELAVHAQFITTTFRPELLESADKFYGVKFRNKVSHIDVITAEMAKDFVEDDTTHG

Tests used:
Assay in all cases: co-IP; dual-affinity purification (FLAG/SBP) from nuclear extracts (1 or 2 mg) of HCT116 epitope-tagged derivatives and parental cells, Western blot with USP13 and FLAG antibodies
[1] = target: T1, SMC1A with FLAG/streptavidin binding peptide dual epitope tag, from the gene-edited endogenous allele (human (endogenous in HCT116)) (UniProt Q14683)
T1 sequence: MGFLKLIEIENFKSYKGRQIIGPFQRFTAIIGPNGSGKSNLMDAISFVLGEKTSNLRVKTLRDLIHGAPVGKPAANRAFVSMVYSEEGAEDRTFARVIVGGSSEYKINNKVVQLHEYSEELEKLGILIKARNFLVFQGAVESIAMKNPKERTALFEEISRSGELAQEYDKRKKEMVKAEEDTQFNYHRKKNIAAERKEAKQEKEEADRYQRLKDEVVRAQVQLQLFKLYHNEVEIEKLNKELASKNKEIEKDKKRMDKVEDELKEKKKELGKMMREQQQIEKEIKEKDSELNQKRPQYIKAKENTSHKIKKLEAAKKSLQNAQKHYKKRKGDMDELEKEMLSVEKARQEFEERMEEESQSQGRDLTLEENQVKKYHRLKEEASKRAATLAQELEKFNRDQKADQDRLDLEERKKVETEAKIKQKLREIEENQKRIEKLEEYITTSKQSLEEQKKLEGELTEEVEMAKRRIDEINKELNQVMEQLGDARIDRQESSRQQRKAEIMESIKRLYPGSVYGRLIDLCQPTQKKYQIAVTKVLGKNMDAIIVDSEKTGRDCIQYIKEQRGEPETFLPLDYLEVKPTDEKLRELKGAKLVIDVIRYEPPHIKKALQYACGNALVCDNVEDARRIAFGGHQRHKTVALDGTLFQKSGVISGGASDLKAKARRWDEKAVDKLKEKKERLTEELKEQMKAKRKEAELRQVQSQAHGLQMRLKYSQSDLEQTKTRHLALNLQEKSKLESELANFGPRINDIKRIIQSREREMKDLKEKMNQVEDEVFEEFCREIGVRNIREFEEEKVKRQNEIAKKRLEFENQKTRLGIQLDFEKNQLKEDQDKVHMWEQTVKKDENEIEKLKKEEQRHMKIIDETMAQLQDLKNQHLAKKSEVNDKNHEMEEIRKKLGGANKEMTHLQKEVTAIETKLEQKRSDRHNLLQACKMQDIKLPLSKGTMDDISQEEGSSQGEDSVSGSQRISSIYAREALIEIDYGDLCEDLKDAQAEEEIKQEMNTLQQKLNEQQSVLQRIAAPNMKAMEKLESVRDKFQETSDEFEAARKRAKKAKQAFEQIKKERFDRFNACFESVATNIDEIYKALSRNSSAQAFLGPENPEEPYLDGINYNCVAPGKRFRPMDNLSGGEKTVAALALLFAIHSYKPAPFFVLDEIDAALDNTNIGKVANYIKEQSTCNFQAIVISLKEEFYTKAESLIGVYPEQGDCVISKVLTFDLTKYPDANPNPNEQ

[2] = target: SMC3 with FLAG/streptavidin binding peptide dual epitope tag, from the gene-edited endogenous allele (human (endogenous in HCT116)) (UniProt Q9UQE7)
[3] = target: T2, STAG2 with FLAG/streptavidin binding peptide dual epitope tag, from the gene-edited endogenous allele (human (endogenous in HCT116)) (UniProt Q8N3U4)
T2 sequence: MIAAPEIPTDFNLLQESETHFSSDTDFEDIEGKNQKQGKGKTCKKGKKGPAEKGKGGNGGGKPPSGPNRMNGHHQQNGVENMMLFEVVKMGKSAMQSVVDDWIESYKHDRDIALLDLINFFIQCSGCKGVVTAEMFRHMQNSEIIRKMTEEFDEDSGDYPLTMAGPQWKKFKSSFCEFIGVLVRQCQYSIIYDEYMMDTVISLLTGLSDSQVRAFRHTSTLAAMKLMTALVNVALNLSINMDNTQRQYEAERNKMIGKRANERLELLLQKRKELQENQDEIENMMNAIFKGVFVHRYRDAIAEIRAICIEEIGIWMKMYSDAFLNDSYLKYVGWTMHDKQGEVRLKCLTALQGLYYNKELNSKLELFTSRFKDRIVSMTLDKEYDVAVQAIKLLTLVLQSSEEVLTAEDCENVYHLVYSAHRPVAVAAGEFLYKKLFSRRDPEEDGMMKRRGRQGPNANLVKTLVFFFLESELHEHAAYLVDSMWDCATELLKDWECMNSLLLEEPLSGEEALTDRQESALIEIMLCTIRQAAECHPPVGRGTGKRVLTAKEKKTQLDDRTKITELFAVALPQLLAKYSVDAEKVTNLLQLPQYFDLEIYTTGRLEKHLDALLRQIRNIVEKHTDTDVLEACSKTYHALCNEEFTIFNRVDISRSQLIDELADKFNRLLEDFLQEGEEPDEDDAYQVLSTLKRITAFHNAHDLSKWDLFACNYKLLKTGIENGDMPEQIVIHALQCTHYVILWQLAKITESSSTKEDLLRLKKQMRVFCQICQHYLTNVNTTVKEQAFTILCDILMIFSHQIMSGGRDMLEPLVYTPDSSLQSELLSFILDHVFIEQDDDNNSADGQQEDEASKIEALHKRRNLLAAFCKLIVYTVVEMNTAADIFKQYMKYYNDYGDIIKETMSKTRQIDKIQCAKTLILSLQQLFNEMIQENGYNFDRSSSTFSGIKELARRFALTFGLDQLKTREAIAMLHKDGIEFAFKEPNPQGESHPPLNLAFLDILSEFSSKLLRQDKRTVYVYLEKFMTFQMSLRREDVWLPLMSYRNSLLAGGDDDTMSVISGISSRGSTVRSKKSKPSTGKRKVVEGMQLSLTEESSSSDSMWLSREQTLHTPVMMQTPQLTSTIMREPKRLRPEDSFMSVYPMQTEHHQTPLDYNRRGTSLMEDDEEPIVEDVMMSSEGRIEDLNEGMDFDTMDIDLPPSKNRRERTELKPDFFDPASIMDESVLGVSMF

Measured: binding

B1: Ubiquitin-Specific Protease 13 (USP13), endogenous (enzyme, UniProt Q92995 1-863)
chain: MQRRGALFGMPGGSGGRKMAAGDIGELLVPHMPTIRVPRSGDRVYKNECAFSYDSPNSEGGLYVCMNTFLAFGREHVERHFRKTGQSVYMHLKRHVREKVRGASGGALPKRRNSKIFLDLDTDDDLNSDDYEYEDEAKLVIFPDHYEIALPNIEELPALVTIACDAVLSSKSPYRKQDPDTWENELPVSKYANNLTQLDNGVRIPPSGWKCARCDLRENLWLNLTDGSVLCGKWFFDSSGGNGHALEHYRDMGYPLAVKLGTITPDGADVYSFQEEEPVLDPHLAKHLAHFGIDMLHMHGTENGLQDNDIKLRVSEWEVIQESGTKLKPMYGPGYTGLKNLGNSCYLSSVMQAIFSIPEFQRAYVGNLPRIFDYSPLDPTQDFNTQMTKLGHGLLSGQYSKPPVKSELIEQVMKEEHKPQQNGISPRMFKAFVSKSHPEFSSNRQQDAQEFFLHLVNLVERNRIGSENPSDVFRFLVEERIQCCQTRKVRYTERVDYLMQLPVAMEAATNKDELIAYELTRREAEANRRPLPELVRAKIPFSACLQAFSEPENVDDFWSSALQAKSAGVKTSRFASFPEYLVVQIKKFTFGLDWVPKKFDVSIDMPDLLDINHLRARGLQPGEEELPDISPPIVIPDDSKDRLMNQLIDPSDIDESSVMQLAEMGFPLEACRKAVYFTGNMGAEVAFNWIIVHMEEPDFAEPLTMPGYGGAASAGASVFGASGLDNQPPEEIVAIITSMGFQRNQAIQALRATNNNLERALDWIFSHPEFEEDSDFVIEMENNANANIISEAKPEGPRVKDGSGTYELFAFISHMGTSTMSGHYICHIKKEGRWVIYNDHKVCASERPPKDLGYMYFYRRIPS
binds: all assays above
